Laboratory results taken from patent publication US10299477B2 (priority 2015, dated 2019).

How the values were obtained:
[1] = system: Magnaporthe grisea; assay type: in vivo; details: for Test A control value (blast on rice): 250 ppm spray, preventive, control value class; for Test A (control value class): Blast on rice, control value=100{1-(n/3)}
[2] = system: Phytophthora infestans; assay type: in vivo; details: for Test F control value (late blight on tomato): 250 ppm spray (2.5 ml/pot), preventive, 5-10 days after inoculation, control value class; for Test F (control value class): Late blight on tomato, 250 ppm spray, 2.5 ml/pot, evaluated 5-10 days after inoculation
[3] = system: Colletotrichum orbiculare; details: 250 ppm spray (2.5 ml/pot), preventive; 6-10 days after inoculation; control value class

SMILES	Test A control value (blast on rice) [1]	Test F control value (late blight on tomato) [2]	Test H control value (anthracnose on cucumber) [3]	Test A (control value class) [1]	Test F (control value class) [2]
COc1cc(OC)c(Cl)c(-c2ccc(=O)n(C)c2-c2c(F)cccc2Br)c1 [Compound 185]	H (H shows more than 50% of control values)	H (H shows more than 50% of control values)	H (H shows more than 50% of control values)		
CCN1C(=O)CCC(c2cc(OC)cc(OC)c2)=C1c1c(F)cc(Br)cc1F [Compound 186]	H (H shows more than 50% of control values)	H (H shows more than 50% of control values)	L (L shows 50% or less of control values)		
COc1cc(OC)cc(C2=C(c3c(F)cc(Br)cc3F)N(C)C(=O)CC2)c1 [Compound 187]	H (H shows more than 50% of control values)	H (H shows more than 50% of control values)	L (L shows 50% or less of control values)		
Cn1c(-c2c(F)cccc2F)c(-c2cccc(Cl)c2)ccc1=O [Compound 188]	H (H shows more than 50% of control values)	L (L shows 50% or less of control values)	L (L shows 50% or less of control values)		
Cn1c(-c2c(F)cccc2F)c(-c2cccc(Cl)c2)cc(Cl)c1=O [Compound 189]	H (H shows more than 50% of control values)	L (L shows 50% or less of control values)	L (L shows 50% or less of control values)		
Cn1c(-c2c(F)cccc2F)c(-c2cccc(Cl)c2)cc(Br)c1=O [Compound 190]	H (H shows more than 50% of control values)	L (L shows 50% or less of control values)	L (L shows 50% or less of control values)		
CN1C(=O)CCC(c2cccc(Cl)c2)=C1c1c(F)cccc1F [Compound 191]	L (L shows 50% or less of control values)	L (L shows 50% or less of control values)	L (L shows 50% or less of control values)		
COc1ccc(Cl)c(C2=C(c3c(F)cccc3F)N(CC(F)F)C(=O)CC2)c1 [Compound 192, 5-(2-chloro-5-methoxyphenyl)-1-(2,2-difluoroethyl)-6-(2,6-difluorophenyl)-3,4-dihydropyridine-2(1H)-one]	H (H shows more than 50% of control values)	L (L shows 50% or less of control values)	L (L shows 50% or less of control values)		
CCn1c(-c2c(F)cccc2F)c(-c2cc(OCCOC)ccc2Cl)ccc1=O [Compound 193]	H (H shows more than 50% of control values)	L (L shows 50% or less of control values)	H (H shows more than 50% of control values)		
COc1ccc(Cl)c(-c2ccc(=O)n(CC(F)F)c2-c2c(F)cccc2F)c1 [Compound 194, 5-(2-chloro-5-methoxyphenyl)-1-(2,2-difluoroethyl)-6-(2,6-difluorophenyl)pyridine-2(1H)-one]	H (H shows more than 50% of control values)	L (L shows 50% or less of control values)	H (H shows more than 50% of control values)		
CCn1c(-c2c(F)cccc2F)c(-c2cc(OCCOC)ccc2Cl)cc(Cl)c1=O [Compound 195]	H (H shows more than 50% of control values)	L (L shows 50% or less of control values)	H (H shows more than 50% of control values)		
CCn1c(-c2c(F)cccc2F)c(-c2cc(OCCOC)ccc2Cl)cc(Br)c1=O [Compound 196]	H (H shows more than 50% of control values)	L (L shows 50% or less of control values)	H (H shows more than 50% of control values)		
COc1ccc(Cl)c(-c2cc(Cl)c(=O)n(CC(F)F)c2-c2c(F)cccc2F)c1 [Compound 197]	H (H shows more than 50% of control values)	L (L shows 50% or less of control values)	H (H shows more than 50% of control values)		
COc1ccc(Cl)c(-c2cc(Br)c(=O)n(CC(F)F)c2-c2c(F)cccc2F)c1 [Compound 198, 3-bromo-5-(2-chloro-5-methoxyphenyl)-1-(2,2-difluoroethyl)-6-(2,6-difluorophenyl)pyridine-2(1H)-one]	H (H shows more than 50% of control values)	L (L shows 50% or less of control values)	H (H shows more than 50% of control values)		
CCn1c(-c2c(F)cc(Br)cc2F)c(-c2cc(OC)cc(OC)c2)ccc1=O [Compound 199]	H (H shows more than 50% of control values)	L (L shows 50% or less of control values)	H (H shows more than 50% of control values)		
CCn1c(-c2c(F)cc(Br)cc2F)c(-c2cc(OC)cc(OC)c2Br)ccc1=O [Compound 200]	H (H shows more than 50% of control values)	H (H shows more than 50% of control values)	H (H shows more than 50% of control values)		
CCn1c(-c2c(F)cc(Br)cc2F)c(-c2cc(OC)cc(OC)c2Cl)ccc1=O [Compound 201]	H (H shows more than 50% of control values)	H (H shows more than 50% of control values)	H (H shows more than 50% of control values)		
CCn1c(-c2c(F)cc(Br)cc2F)c(-c2cc(OC)c(Cl)c(OC)c2)ccc1=O [Compound 202]	H (H shows more than 50% of control values)	L (L shows 50% or less of control values)	H (H shows more than 50% of control values)		
COc1cc(OC)cc(-c2ccc(=O)n(C)c2-c2c(F)cc(Br)cc2F)c1 [Compound 203]	H (H shows more than 50% of control values)	L (L shows 50% or less of control values)	H (H shows more than 50% of control values)		
COc1cc(OC)c(Br)c(-c2ccc(=O)n(C)c2-c2c(F)cc(Br)cc2F)c1 [Compound 204]	H (H shows more than 50% of control values)	H (H shows more than 50% of control values)	H (H shows more than 50% of control values)		
COc1cc(OC)c(Cl)c(-c2ccc(=O)n(C)c2-c2c(F)cc(Br)cc2F)c1 [Compound 205]	H (H shows more than 50% of control values)	H (H shows more than 50% of control values)	H (H shows more than 50% of control values)		
COc1cc(-c2ccc(=O)n(C)c2-c2c(F)cc(Br)cc2F)cc(OC)c1Cl [Compound 206]	H (H shows more than 50% of control values)	L (L shows 50% or less of control values)	H (H shows more than 50% of control values)		
CCN1C(=O)CCC(c2cccc(C)c2)=C1c1c(F)cccc1F [Compound 207]	H (H shows more than 50% of control values)	L (L shows 50% or less of control values)	L (L shows 50% or less of control values)		
CCN1C(=O)CCC(c2cccc(OC(F)(F)F)c2)=C1c1c(F)cccc1F [Compound 208]	H (H shows more than 50% of control values)	L (L shows 50% or less of control values)	L (L shows 50% or less of control values)		
CCn1c(-c2c(F)cccc2F)c(-c2ccccc2SC)ccc1=O [Compound 209]	H (H shows more than 50% of control values)	L (L shows 50% or less of control values)	L (L shows 50% or less of control values)		
CCn1c(-c2c(F)cccc2F)c(-c2ccccc2SCCl)cc(Cl)c1=O [Compound 210]	H (H shows more than 50% of control values)	L (L shows 50% or less of control values)	L (L shows 50% or less of control values)		
Cn1c(-c2c(F)cccc2F)c(-c2ccc(Cl)cc2)cc(Cl)c1=O [Compound 285]	H (H shows more than 50% of control values)		H (H shows more than 50% of control values)		
COc1cc(F)c(-c2c(-c3cc(F)cc(F)c3Br)ccc(=O)n2C)c(F)c1 [Compound 823]				H (H shows more than 50% of control values)	L (L shows 50% or less of control values)
COc1cc(F)c(-c2c(-c3cc(F)cc(F)c3Br)cc(Cl)c(=O)n2C)c(F)c1 [Compound 824]				H (H shows more than 50% of control values)	L (L shows 50% or less of control values)
COc1cc(F)c(-c2c(-c3cc(F)cc(F)c3Br)cc(Br)c(=O)n2C)c(F)c1 [Compound 825]				H (H shows more than 50% of control values)	L (L shows 50% or less of control values)
